Source: article PMC12040169 (PLOS Biology, 2025)
The list shows a part of the results.

tested on: T1, C. trachomatis L2/434/Bu expressing GFP (CTL2-GFP); design: species or system HeLa; C. trachomatis total inclusion area by high-content imaging, normalised to DMSO; details: total inclusion area; 28.5 h, 10 µM; inhibitor
T1 construct: L2/434/Bu GFP intracellular growth in HeLa cells
How it was run: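 High-content images of fixed, Hoechst-stained infected cultures supply inclusion area and count (growth) plus nuclei number (viability), complementing bulk GFP/resorufin fluorescence. MIC determination is unchanged from the primary assay.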

SMILES	% of control remaining
Cc1ccn2c(CN3CCC(n4nc(C)cc4C)CC3)c(C)nc2c1 [CBK281616]	79.8495
Cc1ncncc1C(=O)N1CCc2sccc2C1c1ccccc1 (centres unmarked) [CBK281386]	85.7631
NC(=O)c1ccccc1/N=C/c1ccc([N+](=O)[O-])o1 [CBK261675]	52.3495
O=C(CCn1c(CO)nc2ccccc21)c1ccccc1 [CBK296947]	59.5402
Cn1cccc1C(=O)OCC(=O)N1CCCCC1 [CBK305903]	65.4621
COC(=O)C1=C(C)N(c2ccc(C(=O)O)cc2)C(=O)NC1c1cccc(OC)c1OC (centres unmarked) [CBK295355]	113.613
Cc1cc2nc(SCCO)[nH]c2cc1C [CBK027546]	62.0192
CCOc1cccc(-c2cncc(N3CCCC3CO)n2)c1 (centres unmarked) [CBK066004]	104.817
CCc1nc2ccc(C(=O)Nc3ccc(NC(C)=O)cc3)cn2c1N(C)C(=O)Cc1ccccc1 [CBK146855]	90.1054
CC(CNC(=O)Cc1ccc(C(F)(F)F)cc1[N+](=O)[O-])N1CCc2ccccc2C1 (centres unmarked) [CBK298292]	99.6096
Cc1ccc(S(=O)(=O)Oc2c(C=C3C(=O)CC(C)(C)CC3=O)[nH]c3ccccc23)cc1 [CBK263464]	101.142
CC(Cc1ccc(N(C)C)cc1)NC(=O)C1CN(S(=O)(=O)c2ccc(F)cc2)C1 (centres unmarked) [CBK285942]	128.052
COC(=O)c1ccc(NC(=O)c2oc3ccc(Br)cc3c2C)cc1 [CBK296758]	85.6499
Cc1onc(-c2ccccc2)c1C(=O)N1CCC(C(N)=O)CC1 [CBK158721]	94.4461
O=C(c1ccccc1)c1ccccc1-n1nccn1 [CBK013849]	88.8188
COC(=O)c1ccccc1NC(=O)C1CCCN(S(=O)(=O)c2cc(Cl)ccc2Cl)C1 (centres unmarked) [CBK268797]	81.3596
Cc1nn2cc(CNC(=O)C3Cc4ccccc4O3)nc2s1 (centres unmarked) [CBK307498]	81.6454
CC(NC(=O)c1ccccc1Cn1cncn1)C1CC2CCC1C2 (centres unmarked) [CBK281654]	94.3099
Oc1cccc(-c2nccnc2N[C@@H]2CCN(Cc3ccccc3)C2)c1 [CBK037017]	118.075
NCC1CCN(c2cc(C(F)(F)F)c3scc(C(=O)NCc4cccc(F)c4F)c3n2)CC1 [CBK036391T]	16.1588
COc1cc(Nc2cncc(-c3ccccc3CO)n2)cc(OC)c1OC [CBK037160]	94.6674
Cc1ncsc1C(=O)N1CCC(c2cccc(Cc3ccc(C(F)(F)F)cc3)n2)CC1 [CBK286216]	61.307
CCNC(=O)c1ccc(-n2cccn2)c(C#Cc2ccccn2)c1 [CBK283125]	105.47
Cc1ccc(C)c(Nc2nc3nonc3nc2N2CCOCC2)c1 [CBK262491]	55.2194
COc1ccc2ncc3c(-c4ccccc4)n[nH]c3c2c1 [CBK288052]	103.919

SMILES	% of control remaining
CCN(C(=O)c1cc2ccc(N(C)C)cc2[nH]1)C1CCN(C)CC1 [CBK281867]	67.4299
O=S(=O)(NCCOCc1ccccc1)c1ccc2c(c1)Cc1ccccc1-2 [CBK266032]	104.269
C=CCNC(=O)CCc1nc(-c2cccc(OC)c2)no1 [CBK268981]	88.0419
CCOC(=O)c1c(NC(=O)CSc2nnc3ccccn23)sc2c1CCC(C)C2 (centres unmarked) [CBK265668]	125.101
S=C(NCc1ccc(Cl)cc1)Nc1ccncc1 [CBK016651]	95.2564
Cc1cccn2cc(C(=O)N(C)CCn3ccnc3C)nc12 [CBK281735]	101.856
Cc1cc2ncn(CC(=O)Nc3c(C)noc3C)c2cc1C [CBK200222]	87.2598
CN(Cc1ccc(CN2CCOC(c3ccccc3)C2)o1)S(C)(=O)=O (centres unmarked) [CBK306808]	83.6972
Cc1ccc(S(=O)(=O)NCC(c2ccccc2)N2CCN(CCC#N)CC2)cc1 (centres unmarked) [CBK262865]	92.9737
CCCC(=O)Nc1ccc(-c2csc(NC(=O)C3CCCO3)n2)cc1 (centres unmarked) [CBK305854]	22.5325
OC1(Cn2cnc3ccccc32)CCN(Cc2cccc(F)c2)CC1 [CBK284663]	95.7061
CC(c1ccc(F)c(F)c1)N(C)C(=O)Cn1cnnc1[S+](C)[O-] (centres unmarked) [CBK305311]	22.0368
CC1CC(C)CN(CCCNS(=O)(=O)c2ccc3c(c2)oc(=O)n3C)C1 (centres unmarked) [CBK268695]	70.0384
CCOc1ccccc1N(CC(=O)O)S(=O)(=O)c1ccc(Cl)cc1 [CBK287144]	91.2437
c1ccc(CN2CC[C@H](Nc3nccnc3-c3cccnc3)C2)cc1 [CBK036978]	101.283
Nc1ncc(-c2ccc(C(=O)N3CCOCC3)cc2)cc1C(=O)Nc1ccc(C(F)(F)F)cc1 [CBK160204]	75.2132
N#Cc1ccccc1N1CCN(c2cncc(-c3cccc4cccnc34)n2)CC1 [CBK037366]	104.674
COc1cc(NC(=O)Nc2ccc3ccc(Cl)nc3n2)cc(OC)c1OC [CBK115933]	84.5568
CCCCN1CCC(C(=O)Oc2ccc(OC)c3ccccc23)CC1 [CBK122682]	86.9759
O=C(NC(Cc1cccs1)c1nccs1)c1cc[nH]n1 (centres unmarked) [CBK285052]	83.2568
Cc1ccc(-c2noc(CN(C(=O)CCc3ccccc3)C(C)C)n2)cc1 [CBK269313]	88.7725
CCN(CC)CCNC(=O)c1ccc(NS(=O)(=O)c2cc(C(=O)O)ccc2OC)cc1 [CBK296962]	110.23
CN(C)CCN(C)C(=O)c1ccc(-c2ccc3c(c2)OCO3)nc1N(C)C [CBK106072]	91.7795
O=C1C2C(c3ccccc3Cl)OC3(C(=O)c4ccccc4C3=O)C2C(=O)N1c1ccc([N+](=O)[O-])cc1 (centres unmarked) [CBK262425]	104.116
COc1cc(/C=C2\C=C(c3ccc(-c4ccccc4)cc3)OC2=O)ccc1O [CBK265594]	110.483
